Results: PubChem BioAssay AID1159614 (National Center for Advancing Translational Sciences (NCATS), 2016)
About 65 (0.1%) of roughly 45,000 compounds were called active. Calls come from the whole dose curve; as a rule, active = well fitted activation curve with a large enough effect; inconclusive = small, poorly fitted or top-dose-only effect; inactive = no such curve, though single readings can be large or run the other way. Some of the results follow.

biological target: Galactocerebrosidase (Homo sapiens) (UniProt P54803); experiment: A Novel Cell-Based Assay to Identify Small Molecules for B -Galactocerebrosidase; settings: 145M-Twi-hGALC-G270D cells, HMU-beta-Gal fluorescence, 48 h; series mostly up to 57.5 µM; activation: at the top concentration; note: 0% is about no effect; nearly all actives have a fitted effect of over 65% in size
Method in brief: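 qHTS, 1536-well; 145M-Twi-hGALC-G270D cells (WT line also made) in DMEM/F12 + 10% FBS; compound incubation on live cells; HMU-β-gal 0.1 mM final, pH 5.2, NaTC; carbonate stop; fluorescence increase = enhanced residual activity.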

Sequence of UniProt P54803 (P54803 whole entry, looked up): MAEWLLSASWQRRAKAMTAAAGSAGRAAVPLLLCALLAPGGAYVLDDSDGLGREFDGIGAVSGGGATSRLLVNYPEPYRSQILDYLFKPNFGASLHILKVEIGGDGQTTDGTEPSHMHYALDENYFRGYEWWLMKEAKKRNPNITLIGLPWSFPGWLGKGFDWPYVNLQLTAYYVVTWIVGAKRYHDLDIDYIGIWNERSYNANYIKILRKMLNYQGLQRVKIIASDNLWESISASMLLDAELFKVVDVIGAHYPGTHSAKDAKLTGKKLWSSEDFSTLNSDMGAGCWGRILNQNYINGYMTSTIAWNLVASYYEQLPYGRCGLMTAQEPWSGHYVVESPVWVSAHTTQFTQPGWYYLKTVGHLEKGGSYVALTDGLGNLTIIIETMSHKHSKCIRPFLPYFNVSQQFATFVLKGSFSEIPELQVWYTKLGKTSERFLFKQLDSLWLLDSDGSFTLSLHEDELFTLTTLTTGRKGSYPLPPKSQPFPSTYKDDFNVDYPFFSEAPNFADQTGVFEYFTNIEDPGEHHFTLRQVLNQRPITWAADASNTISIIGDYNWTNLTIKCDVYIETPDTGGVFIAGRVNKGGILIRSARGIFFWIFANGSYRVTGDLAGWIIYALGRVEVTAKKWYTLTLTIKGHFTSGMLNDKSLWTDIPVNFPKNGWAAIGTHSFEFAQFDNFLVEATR

**Q.** For CCc1ccc(NC(=O)C2CCN(S(=O)(=O)c3c(C)noc3/C=C/c3ccco3)CC2)cc1, which “activation” value is on record?
**A.** The value was inactive: -1.76%.

**Q.** Which “activation” value does the source give for CCOC(=O)C1CCN(C(=O)c2ccc3c(c2)sc2nc(-c4ccc(C)cc4)cn23)CC1 here?
**A.** The value was inactive: 4.09%.

**Q.** CCCCCC(=O)N(c1ccc(OCC)cc1)S(=O)(=O)c1ccc2c(c1)n(C)c(=O)n2C was tested. Which “activation” value did it give?
**A.** Its value is inactive: -10.6%.

**Q.** For Cc1ccc(CCNC(=O)c2ccc(CS(=O)(=O)Cc3cccc(C)c3)o2)cc1, which “activation” value is on record?
**A.** The value was inactive: -8.45%.

**Q.** Cc1ccc(NC(=O)Cn2cc3c(n2)CCC(C)C3)cc1C (configuration not stated) was tested. Which “activation” value did it give?
**A.** Its value is inactive: -9.44%.

**Q.** COc1ccc(Cn2ccc3nc(C)c(C(=O)N4CCN(c5ccccc5F)CC4)cc3c2=O)cc1 was tested. Which “activation” value did it give?
**A.** Its value is inactive: -19.2%.

**Q.** For Cc1ccccc1C(=O)NC1(C(F)(F)F)N=C(c2ccccc2)N(Cc2ccccc2)C1=O (configuration not stated), which “activation” value is on record?
**A.** Its value is inactive: -25.3%.

**Q.** How did the “activation” value turn out when COc1cccc(-c2cc(C(F)(F)F)n3nc(C)c(-c4ccccc4)c3n2)c1 was run?
**A.** Its value is inactive: -4.3%.

**Q.** How did the “activation” value turn out when CCn1ccc2cc(S(=O)(=O)N3CCCN(C(=O)NCC(=O)OC)CC3)ccc21 was run?
**A.** The value was inactive: -15.8%.

**Q.** Which “activation” value does the source give for Cc1cc(C)c(S(=O)(=O)NCc2csc(-c3ccccc3)n2)c(C)c1 here?
**A.** The value was inactive: -2.95%.

**Q.** For Cc1ccc2nc(COc3cccc(NC(=O)c4cccc(Cl)c4)c3)cc(=O)n2c1, which “activation” value is on record?
**A.** Its value is inactive: -13.3%.

**Q.** How did the “activation” value turn out when CCc1ccccc1N(C)C(=O)c1nn(C)c2c1CSc1ccccc1-2 was run?
**A.** The value was inactive: -4.87%.

**Q.** How did the “activation” value turn out when COC(=O)c1ccc(Oc2nc3c(c(=O)n(C)c(=O)n3C)n2C(C)C)cc1 was run?
**A.** Its value is inactive: -6.9%.

**Q.** Which “activation” value does the source give for O=C(COc1ccccc1[N+](=O)[O-])Nc1cc(-c2nc3cc(Cl)ccc3o2)ccc1Cl here?
**A.** Its value is inactive: -17.2%.

**Q.** Cc1ccc2nc(N3CCC(C(=O)NCc4ccc(F)cc4)CC3)[nH]c2c1 was tested. Which “activation” value did it give?
**A.** Its value is inactive: -3.92%.

**Q.** For CCCCNC(=O)CSc1nc2cc3c(cc2c(=O)n1CCCCCC(=O)NCCc1ccc(OC)c(OC)c1)OCO3, which “activation” value is on record?
**A.** The value was inactive: -5.86%.

**Q.** For CCC12CN3CC(C)(CN(C1)C3c1c[nH]c3ccc(OC)cc13)C2=O (configuration not stated), which “activation” value is on record?
**A.** The value was inactive: -17.6%.

**Q.** For Cc1ccccc1NC(=O)Cn1c(=O)n(CCC(=O)NCc2ccc3c(c2)OCO3)c(=O)c2sccc21, which “activation” value is on record?
**A.** The value was inactive: -5.31%.

**Q.** For CC(=O)N1CCc2cc(CNS(=O)(=O)c3ccc(C(C)(C)C)cc3)ccc21, which “activation” value is on record?
**A.** Its value is inactive: 3.26%.

**Q.** With O=C1CN(C(=O)c2ccc(S(=O)(=O)N3CCCCC3)cc2)C(c2ccc(F)cc2)c2cc(Br)ccc2N1 (configuration not stated) as the molecule, how does the “activation” value read?
**A.** The value was inactive: -12.1%.

**Q.** How did the “activation” value turn out when Cc1ccc(OCC(=O)Nc2ccc3nc(SCC(=O)N4CCOCC4)sc3c2)cc1C was run?
**A.** Its value is inactive: -8.41%.

**Q.** How did the “activation” value turn out when CCOC(=O)C1CCCN(C(=O)CCS(=O)(=O)c2cc3c(cc2Cl)NC(=O)CO3)C1 (configuration not stated) was run?
**A.** The value was inactive: -6.11%.

**Q.** For CCC(Sc1nc2cc3c(cc2c(=O)n1CCCC(=O)NCc1ccc(OC)cc1)OCO3)C(=O)NCCCOC (configuration not stated), which “activation” value is on record?
**A.** Its value is inactive: -7.77%.

**Q.** Which “activation” value does the source give for CCN(CC)C(=O)c1sc2c(c1C)c(=O)n(-c1ccc(C)c(C)c1)c(=O)n2Cc1cccc(Cl)c1 here?
**A.** The value was inactive: -22.1%.

**Q.** Which “activation” value does the source give for Cc1ccc2cccc(NC(=O)c3ccc(C#N)cc3F)c2n1 here?
**A.** The value was inactive: 3.15%.

**Q.** Which “activation” value does the source give for CCCCc1ccc(NS(=O)(=O)c2ccc(N3CCCCS3(=O)=O)cc2)cc1 here?
**A.** Its value is inactive: 1.99%.

**Q.** Which “activation” value does the source give for CCOc1ccc(C(=O)c2cn(Cc3ccccc3)c3c(F)cc(F)cc3c2=O)cc1 here?
**A.** The value was inactive: -37.2%.

**Q.** How did the “activation” value turn out when Cc1ccc(C2C=C(c3ccc(F)cc3)Nc3nc(CCCO)nn32)cc1 (configuration not stated) was run?
**A.** Its value is inactive: -11.2%.

**Q.** How did the “activation” value turn out when COc1ccc(OC)c(NC(=O)c2cnc(N3CCCC3)nc2C)c1 was run?
**A.** Its value is inactive: -13.4%.

**Q.** How did the “activation” value turn out when Cc1nn(-c2ccc(F)cc2)c(-n2cccc2)c1C(=O)N1CCN(c2ccccc2F)CC1 was run?
**A.** Its value is inactive: -30.8%.

**Q.** With COc1ccccc1CNC(=O)CN(c1ccc(C)cc1)S(=O)(=O)c1c(C)noc1C as the molecule, how does the “activation” value read?
**A.** The value was inactive: -10.3%.

**Q.** Which “activation” value does the source give for CC(=O)Nc1ccc(NS(=O)(=O)c2ccc(Cl)s2)cc1 here?
**A.** Its value is inactive: -30.6%.

**Q.** Which “activation” value does the source give for Cc1c(C(=O)Nc2ccc(F)c(F)c2)oc2ccc(S(=O)(=O)N3CCC4(CC3)OCCO4)cc12 here?
**A.** Its value is inactive: -3.72%.

**Q.** With O=C(Nc1c(-c2ccc(F)cc2)nc2ccccn12)c1cccc(F)c1 as the molecule, how does the “activation” value read?
**A.** Its value is inactive: -10.8%.

**Q.** How did the “activation” value turn out when O=C(CN1C(=O)CCc2cc(S(=O)(=O)N3CCOCC3)ccc21)NCc1ccccc1Cl was run?
**A.** The value was inactive: -6.86%.

**Q.** How did the “activation” value turn out when CCCOc1ccc(NC(=O)CC2C(=O)N(c3ccc(C)cc3)C(=O)N2C2CCCC2)cc1 (configuration not stated) was run?
**A.** Its value is inactive: -23.3%.

**Q.** Which “activation” value does the source give for CCSc1ncc(Cl)c(C(=O)N(Cc2ccccc2)Cc2ccco2)n1 here?
**A.** The value was inactive: 3.95%.

**Q.** With CCOC(=O)C1CCCN(S(=O)(=O)c2cc3c(cc2C)NC(=O)CO3)C1 (configuration not stated) as the molecule, how does the “activation” value read?
**A.** Its value is inactive: -13.2%.

**Q.** For O=C(NCc1cccc(F)c1)c1ccc2nc(N3CCCCC3)sc2c1, which “activation” value is on record?
**A.** The value was inactive: -14.9%.

**Q.** For COc1ccc(Cn2c(=O)c3oc4ccccc4c3n(Cc3cccc(F)c3)c2=O)cc1, which “activation” value is on record?
**A.** The value was inactive: -5.61%.

**Q.** With Cc1ccc(OCC(=O)Nc2ccc3nc(SCC(N)=O)sc3c2)cc1 as the molecule, how does the “activation” value read?
**A.** The value was inactive: 10.6%.

**Q.** With CCSc1nnc2c(n1)OC(c1sccc1C)N(C(C)=O)c1ccccc1-2 (configuration not stated) as the molecule, how does the “activation” value read?
**A.** Its value is inactive: 2.27%.

**Q.** Which “activation” value does the source give for CC1=C(C(=O)Nc2cc(Cl)ccc2C)C(c2ccco2)n2ncnc2N1 (configuration not stated) here?
**A.** The value was inactive: -13.8%.

**Q.** With O=C(CSc1nc2c([nH]c3ccccc32)c(=O)n1-c1ccc(F)cc1)NCc1ccco1 as the molecule, how does the “activation” value read?
**A.** Its value is inactive: 3.84%.

**Q.** For Cc1c(C)n(C)c2ccc(C(=O)NCCc3ccc(Cl)cc3)cc12, which “activation” value is on record?
**A.** Its value is inactive: -7.51%.

**Q.** How did the “activation” value turn out when O=C(NCCc1ccc(Cl)cc1)c1ccc2c(c1)N(Cc1c(F)cccc1Cl)C(=O)CS2 was run?
**A.** Its value is inactive: -6.19%.

**Q.** How did the “activation” value turn out when COC(=O)c1c(C)oc2ccc(N(C(=O)Oc3ccccc3)S(=O)(=O)c3ccc(C(C)(C)C)cc3)cc12 was run?
**A.** Its value is inactive: -5.34%.
